# Results: ChEMBL document CHEMBL4888484, “Replenishing the malaria drug discovery pipeline: Screening and hit evaluation of the MMV Hit Generation Library 1 (HGL1) against asexual blood stage Plasmodium falciparum ,using a nano luciferase reporter read-out” (2022)
# In all, about 150,000 compounds went through this assay and about 540 (0.36%) showed an effect of 50% or more. Some of the results follow.
# Test system: Plasmodium falciparum
# Test: Primary screen in NF54 nanoGlo assay, in single point, at 2uM, 72h; a lower Z score goes with more inhibition
# Format: functional, Erythrocyte
# Conditions: timepoint 72 hour
SMILES,% Inhibition [%],Z score
NC(=O)CN1CCC(NC(=O)c2cc3c(s2)CCCCC3)CC1,-3,0.57
FC(F)(F)Oc1ccc(-c2c[nH]c([C@@H]3COCCN3C3CCOCC3)n2)cc1,-4,0.67
Cc1ccc2nc(N3CCC[C@H](O)C3)c(CN3CCN(CCO)CC3)cc2c1,-11,1.09
CC1(C(=O)NC[C@@]2(C)CCN(C(=O)C3(C)COC3)C2)COC1,-7,1.35
O=C(NC1CC1)C1CCCN1C1CCCN(CC(F)(F)F)C1=O (stereo unspecified),-24,2.82
CC[C@H](C)CS(=O)(=O)Cc1nsc(N(C)C)n1,-5,0.64
CO[C@@H](C(=O)N1CCC(n2cc(Cl)cn2)CC1)c1ccccc1,-9,0.98
CCN(Cc1cc[nH]n1)C1CCCCC1,-2,0.43
Cc1cccc(C)c1OC1CCN(C(=O)Cc2c(C)noc2C)CC1,-8,1.04
C=CCn1c(C)c(CCC(=O)N[C@@H](C)CC)c(=O)n2nc(-c3ccccc3)nc12,-23,2.27
Cc1ccc(S(=O)(=O)N2CCC[C@@H]3C[C@@]32C(=O)O)c(Cl)c1,-3,0.37
CCOCCO/C(=N/C(=O)c1ccc(OC)cc1)NC[C@H]1CCCO1,-24,2.15
CCOC(=O)CCNC(=O)N1CCC(N2C[C@@H](Oc3ccccc3)C[C@H]2C(=O)NC)CC1,-11,1.37
O=C(Cc1csc(Nc2ccc(F)cc2)n1)NC[C@H]1CCCO1,13,-1.72
Cc1cc(Cl)cc2c1NC(=O)C21NC(CCC(=O)O)[C@H]2C(=O)N(Cc3ccccc3Cl)C(=O)[C@H]21 (stereo partly specified),38,-4.92
Cc1c[nH]c(CN(C)c2ncnc3oc(C)nc23)n1,2,-0.45
Cn1cccc1C(=O)N1Cc2c(C(=O)N3CCCC3)nn(C)c2C1,-18,3.24
CCS(=O)(=O)c1cc(Cl)cc(CNCc2ccc(C)nc2)c1,-5,0.62
O=C(CCc1ccnc2ccccc12)NC1C2CCOC2C12CCC2 (stereo unspecified),-9,1.66
CC(C)c1ccoc1C(=O)N(CC(F)(F)F)[C@H]1CCCOC1,-6,0.75
Cc1ccccc1CN[C@H]1CCCOCC1,-4,0.53
CC(C)(C(=O)N1CCC2(CCc3ccccc3C2=O)CC1)n1cc(N)cn1,-5,0.75
O=C(c1ccc(Cl)cc1)c1cc(NC(=O)c2cc(Cl)cc(Br)c2O)ccc1Cl,-9,1.24
CCCc1nc(C)cc(N2CC[C@H]3[C@H](CCC(=O)N3CCCO)C2)n1,-3,0.62
COc1ccccc1[C@@H](NCc1ncnn1C)C1CCCC1,-3,0.59
Cc1cccc(Cl)c1S(=O)(=O)NC(=O)c1cn2c(n1)CCC2,-10,1.23
O=C(Nc1cccc(S(=O)(=O)N2CCOCC2)c1)c1n[nH]c(=O)c2ccccc12,-9,1

SMILES,% Inhibition [%],Z score
O=C1Nc2c(F)cccc2[C@@H]1CC(=O)N(Cc1ccncc1)C1CC1,-6,0.98
CC1CCN(C(=O)CCN2CCN(c3ncc[nH]c3=O)CC2)CC1,-6,1.15
O=C1CN(S(=O)(=O)c2cccc3nsnc23)c2ncccc2N1,6,-1.11
C=CCN1C[C@H]2CN(C(=O)COc3cccc(C)c3C)C[C@@]2(C(=O)O)C1,-7,1.47
Cc1ccc(-c2ccc(C(=O)N3CCC[C@H](C(N)=O)C3)cc2)c(C)n1,-1,0.1
CC(C)NC(=O)N[C@H]1CCN2C(=O)c3cc(-c4ccc(F)cc4F)ccc3NC(=O)[C@H]12,34,-3.82
O=C(NCC1(c2ccccc2Cl)CCOCC1)[C@H]1C[C@H](F)CN1,-6,0.8
NC1CCCC1C(=O)N1CCC(c2nc3cc(Cl)ccc3o2)CC1 (stereo unspecified),-10,1.52
CCn1cnnc1CN(C)Cc1cc2cc(C)ccc2n1C,-17,1.74
C[C@H](NC(=O)c1ccoc1)c1nc(C2CC2)no1,-10,1.05
C=CCN1C[C@@H](C(=O)N(CC)Cc2cc(Cl)ccc2OC)CCC1=O,25,-3.14
COC1CCCC1OC(=O)c1cccc(-n2cnnn2)c1 (stereo unspecified),-5,0.6
Cc1ccc(N(CN2C(=O)NC(C)(C)C2=O)CN2C(=O)NC(C)(C)C2=O)cc1,-13,1.65
Cc1cc(CNC(=O)[C@@H]2Cc3ccccc3C(=O)N2)n(C)n1,1,-0.15
C[C@@H](CN1CCOC2(CCOCC2)C1)c1cccc(Cl)c1,-8,0.8
O=C(O)c1csc(-n2nc3c(c2C(F)(F)F)CCCCC3)n1,-36,4.19
OCCC1CN(Cc2ccc(Cl)cc2-n2cncn2)C1,-11,1.57
CCn1ccnc1[C@H]1OCC[C@@H]1NS(=O)(=O)c1cccc2nsnc12,-14,2.41
CN1CC[C@H](CNC(=O)c2cccc(N3Cc4ccccc4C3)c2)C1,-15,1.62
NC(=O)C[C@H]1CCCN(S(=O)(=O)c2cc(C(=O)O)cc3c2CCCC3)CC1,-2,0.24
Cc1cccc([C@@H]2CCCCN2CC(N)=O)c1C,0,0.05
Cc1cc(C)n(-c2ccc(NC(=O)c3cc(C4CC4)nc4c3cnn4C)cc2)n1,35,-3.97
C[C@H](NCCc1ccccc1)C(=O)NC(=O)NC1CCCCC1,3,-0.32
O=C1C[C@H](COc2cnccn2)CN1CC1CCN(C(=O)c2n[nH]c3ccccc23)CC1,-9,1.77
CC1CC(c2cccnc2)N(C(=O)CCc2cccc(N(C)C)c2)C1 (stereo unspecified),-4,0.81
CC#CCN1CCC[C@H](S(=O)(=O)NC2CCCC2)C1,-19,2.69
